Laboratory results from paper PMC11955279.
Results are given in words; binding and its absence hold for the method and conditions named. For some assays here: In cells and extracts the contact can be indirect. Some binding calls cover weakened binding; strength is not graded here.

Sequences of proteins named here, by UniProt entry; tags and fusion partners are left off. A change or cut given only in a name is not applied to a line headed by its entry. A line that says so, or that is headed by a name, gives the form on record, which may keep a tag or linker.
UniProt P35631: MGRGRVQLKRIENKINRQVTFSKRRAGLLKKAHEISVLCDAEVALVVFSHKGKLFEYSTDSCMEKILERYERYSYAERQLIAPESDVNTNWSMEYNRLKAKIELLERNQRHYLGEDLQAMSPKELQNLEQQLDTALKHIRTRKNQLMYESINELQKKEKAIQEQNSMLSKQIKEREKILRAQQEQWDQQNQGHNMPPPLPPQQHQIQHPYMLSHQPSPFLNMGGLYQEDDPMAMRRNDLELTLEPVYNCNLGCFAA
UniProt O22456: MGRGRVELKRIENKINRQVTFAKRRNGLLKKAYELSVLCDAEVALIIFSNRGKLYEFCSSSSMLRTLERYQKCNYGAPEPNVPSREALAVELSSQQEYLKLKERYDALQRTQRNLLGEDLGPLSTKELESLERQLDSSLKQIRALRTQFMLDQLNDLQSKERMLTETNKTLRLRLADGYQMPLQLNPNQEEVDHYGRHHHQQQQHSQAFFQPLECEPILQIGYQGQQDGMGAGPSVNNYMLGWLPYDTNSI
AtSEP3-T1 (Leu to Ala at position 99), in pGADT7 (O22456, form named): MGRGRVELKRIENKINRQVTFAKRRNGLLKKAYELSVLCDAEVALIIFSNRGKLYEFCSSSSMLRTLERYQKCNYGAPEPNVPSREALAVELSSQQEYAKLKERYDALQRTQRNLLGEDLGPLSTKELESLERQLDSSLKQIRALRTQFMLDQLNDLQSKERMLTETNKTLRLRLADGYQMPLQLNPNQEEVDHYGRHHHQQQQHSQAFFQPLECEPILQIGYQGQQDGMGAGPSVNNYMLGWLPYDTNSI
AtSEP3-T2 (Leu to Ala at positions 99 and 101), in pGADT7 (O22456, form named): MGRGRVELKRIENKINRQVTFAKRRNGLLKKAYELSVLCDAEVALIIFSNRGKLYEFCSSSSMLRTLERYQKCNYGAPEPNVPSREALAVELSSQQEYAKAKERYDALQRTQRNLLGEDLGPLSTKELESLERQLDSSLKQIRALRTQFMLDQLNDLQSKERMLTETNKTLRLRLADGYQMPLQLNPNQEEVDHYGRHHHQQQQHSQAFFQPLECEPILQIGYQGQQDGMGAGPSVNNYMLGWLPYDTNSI
AtSEP3-T3 (Leu to Ala at positions 99, 101, and 108), in pGADT7 (O22456, form named): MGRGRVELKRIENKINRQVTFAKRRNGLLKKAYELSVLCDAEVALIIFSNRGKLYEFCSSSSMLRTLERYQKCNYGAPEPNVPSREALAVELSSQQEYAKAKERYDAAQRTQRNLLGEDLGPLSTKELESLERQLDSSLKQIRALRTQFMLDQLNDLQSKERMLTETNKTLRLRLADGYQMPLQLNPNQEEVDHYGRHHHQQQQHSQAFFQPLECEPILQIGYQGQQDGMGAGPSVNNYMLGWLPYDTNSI
AtSEP3-T4 (Leu to Ala at positions 99, 101, 108, and 115), in pGADT7 (O22456, form named): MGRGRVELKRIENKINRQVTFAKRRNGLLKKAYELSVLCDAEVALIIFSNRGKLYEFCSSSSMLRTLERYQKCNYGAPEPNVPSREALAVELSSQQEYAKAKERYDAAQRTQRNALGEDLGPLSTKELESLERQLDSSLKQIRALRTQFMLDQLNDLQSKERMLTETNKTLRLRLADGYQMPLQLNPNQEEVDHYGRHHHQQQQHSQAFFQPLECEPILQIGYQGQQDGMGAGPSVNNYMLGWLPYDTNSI
AtSEP3-T5 (Leu to Ala at positions 99, 101, 108, 115, and 116), in pGADT7 (O22456, form named): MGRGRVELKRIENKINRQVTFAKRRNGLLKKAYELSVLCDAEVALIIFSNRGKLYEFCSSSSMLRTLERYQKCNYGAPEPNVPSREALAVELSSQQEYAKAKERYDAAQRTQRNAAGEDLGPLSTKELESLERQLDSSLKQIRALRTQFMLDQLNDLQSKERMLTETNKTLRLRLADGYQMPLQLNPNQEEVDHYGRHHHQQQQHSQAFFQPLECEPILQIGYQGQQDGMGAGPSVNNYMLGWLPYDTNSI
AtSEP3-T5, in pSPYCE-35S/PUC (BiFC) (O22456, form named): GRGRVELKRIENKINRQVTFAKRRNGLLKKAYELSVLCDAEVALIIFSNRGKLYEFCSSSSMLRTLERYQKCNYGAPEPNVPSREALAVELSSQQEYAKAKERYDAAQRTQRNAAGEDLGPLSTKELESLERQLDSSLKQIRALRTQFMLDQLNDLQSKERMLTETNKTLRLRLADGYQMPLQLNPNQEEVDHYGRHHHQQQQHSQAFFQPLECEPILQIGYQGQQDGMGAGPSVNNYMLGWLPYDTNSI

Legend:
[1] = molecular target: AtAP1 (APETALA1), in pGBKT7 (Arabidopsis thaliana) (UniProt P35631); experiment: two-hybrid; yeast two-hybrid, colonies on deficient media; AtSEP3 forms in pGADT7, AtAP1 in pGBKT7
[2] = molecular target: AtAP1 (APETALA1), in pGBKT7 (Arabidopsis thaliana) (UniProt P35631); experiment: two-hybrid; β-galactosidase activity (ONPG) of the yeast two-hybrid colonies in liquid culture; Z-buffer pH 7.0, 30°C, 10 min; control AD + BD
[3] = molecular target: AtAP1, in pSPYNE-35S/PUC (BiFC) (Arabidopsis thaliana) (UniProt P35631); experiment: split reporter; BiFC in the lower epidermis of tobacco leaves, Agrobacterium cultures mixed 1:1; confocal microscopy, excitation 488 nm, emission 505–530 nm

Substance	binding [1]	binding [2]	binding [3]
AtSEP3 (…3), wild type, in pGADT7 (from UniProt O22456 1-251)	binds	binds	
AtSEP3, wild type, in pSPYCE-35S/PUC (BiFC) (from UniProt O22456 2-251)			binds
AtSEP3-T1 (Leu to Ala at position 99), in pGADT7 (from UniProt O22456 1-251)	binds	binds	
AtSEP3-T2 (Leu to Ala at positions 99 and 101), in pGADT7 (from UniProt O22456 1-251)	binds	binds	
AtSEP3-T3 (Leu to Ala at positions 99, 101, and 108), in pGADT7 (from UniProt O22456 1-251)	binds	binds	
AtSEP3-T4 (Leu to Ala at positions 99, 101, 108, and 115), in pGADT7 (from UniProt O22456 1-251)	binds	binds	
AtSEP3-T5 (Leu to Ala at positions 99, 101, 108, 115, and 116), in pGADT7 (from UniProt O22456 1-251)	no binding	no binding	
AtSEP3-T5, in pSPYCE-35S/PUC (BiFC) (from UniProt O22456 2-251)			no binding
